# Experimental data taken from PubChem BioAssay AID1671193 (National Center for Advancing Translational Sciences (NCATS), 2021).
# Several values for one entry are separate records, joined by “and”; a condition that tells them apart may be missing. Identical values can stand only once. About 180 (0.12%) of roughly 150,000 compounds were called active. The inconclusive results got no clear call from the source; some entries with a clear call stand among them for comparison. The call rests on the fitted dose curve; in most records, active means well fitted cell-killing curve with a large enough effect; inconclusive means small, poorly fitted or top-dose-only effect, or effect the other way; inactive means flat fitted curve, though single readings scatter. Potencies beside an inconclusive call are fits to weak or partial responses and may not hold up.
# Test: GF-AFC viability counterscreen for inhibitors of alpha-synuclein gene (SNCA) expression; further: nearly all actives have a fitted effect of over 30% in size;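 on activity change, negative = cytotoxicity: 0% = DMSO-treated cells and -100% = medium-only wells without cells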
# Conditions: HEK-293-SNCA-luc viability, GF-AFC fluorescence, 24 h; activity change, negative = cytotoxicity: at 57.1 µM (top of the series) unless noted
# Summary of the method: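 HEK-293-SNCA-luc cells (1500/well) plated 24 h, then exposed 24 h to a dilution series; GF-AFC added 30 min at 37C, fluorescence 405/540 nm; normalised to medium-only and DMSO wells, Hill fit.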
# Potency means the concentration at half of the fitted maximal effect; tags describe the fitted curve by direction and shape.
SMILES,Potency,"activity change, negative = cytotoxicity"
O=C(NCCc1ccccc1)c1cn2cc(-c3ccc(C(F)(F)F)cc3)sc2n1,inactive,–
O=C(c1ccnnc1)N1CC(F)(F)C[C@H]1c1nc(-c2ccccc2)no1,inactive,–
Cn1cc(-c2nc3cnc(Oc4ccccc4)nc3n(C)c2=O)c2ccccc21,"inconclusive: 17.8 µM [rising, partial curve, poor fit]",–
O=C1NC(=NC2CCCC2)C2(CCCN(CC3CCCCC3)C2)N1c1cc(F)cc(F)c1 (stereo unspecified),"inconclusive: 22.4 µM [cytotoxic, partial curve, poor fit]",–
Cc1cc2c(C(C)C)c(O)c(O)c(C=O)c2c(O)c1-c1c(C)cc2c(C(C)C)c(O)c(O)c(C=O)c2c1O,"inconclusive: 30.4 µM [cytotoxic, single point] and inconclusive: 20 µM [cytotoxic, partial curve]",–
CN1C[C@@H](NC(=O)c2ccc3c(c2)OCO3)C[C@H]1c1nc(-c2ccc(Cl)cc2)no1,"inconclusive: 28.2 µM [cytotoxic, partial curve]",–
CCn1c(=N)c(C(=O)NCc2ccccc2)cc2c(=O)n3cc(C)ccc3nc21,"inconclusive: 1.41 µM [rising, partial curve, poor fit]",–
COc1ccc(C(=O)N2CCc3ccc(C(=O)NCc4cccc(C)c4)cc32)cc1,"inconclusive: 31.6 µM [cytotoxic, partial curve, poor fit]",–
O=C(NCc1nnc2ccc(-c3ccccc3)nn12)c1ccc(Cl)s1,inactive,–
COc1ccc(C(C)NC(=O)c2c(C)oc3ccn(Cc4cccc(F)c4)c(=O)c23)cc1 (stereo unspecified),inactive,–
O=C(Cn1ccn2nc(-c3ccc(F)cc3)c(CO)c2c1=O)NCc1ccccc1Cl,inactive,–
CC1CCN(C(=O)C[C@@H]2c3nc(NC(=O)c4ccnc(Cl)c4)sc3C[C@@H]3[C@](C)(CO)[C@H](O)CC[C@]32C)CC1,"inconclusive: 39.8 µM [cytotoxic, single point]",–
CN1CCN(c2ncc3nc(-c4ccccc4)c(=O)n(-c4ccccc4)c3n2)CC1,"inconclusive: 28.2 µM [rising, partial curve, poor fit]",–
NC1(C(=O)NCc2nc(-c3cccc(F)c3)c(-c3ccccn3)[nH]2)CCC1,inactive,–
COc1ccc(NC(=O)N[C@@H]2C=C[C@@H](c3c(C)nn(-c4ccc(C(C)C)cc4)c3C)C2)cc1,inactive,–
O=C(NC1CC1)c1ccccc1OCC1CCCN(Cc2cn[nH]c2-c2ccc(F)cc2)C1 (stereo unspecified),"inconclusive: 10 µM [cytotoxic, partial curve, poor fit]",–
Cc1ccccc1N(C)C1CN(C(=O)c2ccccn2)C1,inactive,–
CCCCCNC(=O)Cc1csc2nc(C)c(-c3cc(C)n(-c4ccccc4F)n3)c(=O)n12,inactive,–
CCNc1ncc2nc(-c3cccs3)c(=O)n(CCc3ccccc3)c2n1,"inconclusive: 8.91 µM [rising, full curve]",–
O=C(C1CCCCC1)N1CCC(Cc2ccc(CO)cc2)CC1,inactive,–
CC1=C[C@@H](CN2CCOCC2)[C@H](C(C)C)C[C@H]1Cc1nnc(-c2ccc([N+](=O)[O-])cc2)o1,"inconclusive: 22.4 µM [cytotoxic, single point]",–

SMILES,Potency,"activity change, negative = cytotoxicity"
C[C@@H]1COC(Nc2ccc3ncnc(Nc4ccc(OCc5nccs5)c(Cl)c4)c3c2)=N1,"inconclusive: 30.4 µM [cytotoxic, single point] and inconclusive: 21.2 µM [cytotoxic, single point]",–
C=C1C(=O)O[C@@H]2[C@H]1CCC(C)=C1CCC(=O)O[C@]12C,"inconclusive: 37.7 µM [cytotoxic, single point]",–
CCC1CN(C(=O)N2CCC(C(=O)NCCc3ccccc3Cl)CC2)c2cc(C)ccc2O1 (stereo unspecified),"inconclusive: 25.1 µM [cytotoxic, single point]",–
CCn1cc(C(=O)N2C[C@@H](CO)[C@H](c3ccncc3)C2)cn1,"inconclusive: 1.26 µM [cytotoxic, full curve, poor fit]",–
Cc1cc(SCc2sc(-c3ccc(C(F)(F)F)cc3)nc2C)ccc1OCC(=O)O,inactive,–
COc1ccc(-c2cc3c(=O)n(CCNC(=O)Cc4ccsc4)ccn3n2)cc1,"inconclusive: 6.31 µM [cytotoxic, single point]",–
CCOc1cccc(-c2nc(C(=O)Nc3ccc(OC)cc3)cs2)c1,inactive,–
O=C(CC1(O)C(=O)N(CCc2ccccc2)c2ccc(Br)cc21)c1ccc(F)cc1 (stereo unspecified),"inconclusive: 25.1 µM [cytotoxic, single point]",–
CCn1cc(-c2ccccc2)cc1C(=O)NC(C)c1cccnc1 (stereo unspecified),"inconclusive: 12.6 µM [cytotoxic, partial curve, poor fit]",–
COCCCn1c(=N)c(C(=O)NCC2CCCO2)cc2c(=O)n3cc(C)ccc3nc21 (stereo unspecified),"inconclusive: 11.2 µM [rising, partial curve]",–
O=C(Nc1cccc(Br)c1)N1CCC2(CC1)SCC(=O)N2Cc1ccccc1,"inconclusive: 7.94 µM [cytotoxic, full curve, poor fit]",–
CCN(CC)c1nc2c(-c3cccc(Br)c3)nnn2c2ccccc12,"inconclusive: 31.6 µM [rising, single point]",–
Cn1cc(-c2cnc3[nH]cc(CC(=O)Nc4cccc(OC(F)(F)F)c4)c3c2)cn1,"inconclusive: 11.2 µM [cytotoxic, partial curve, poor fit]",–
COc1cc2cc(CNc3ccccc3)c(=O)n(CC(=O)Nc3ccccc3)c2cc1OC,"inconclusive: 25.1 µM [rising, single point]",–
C[S+](=O)([O-])NCCn1ccc2cc(OC3CCN(C(=O)C4CCCC4)CC3)cnc21,inactive,–
Cc1nc(-c2ccc(S(=O)(=O)Nc3ccc(C#N)cc3)cc2)co1,"inconclusive: 39.8 µM [rising, partial curve, poor fit]",–
CCOc1cc2c(c(F)c1OCC)C(=N)N(CC(=O)c1cc(N3CCOCC3)c(OC)c(C(C)(C)C)c1)C2,"inconclusive: 37.7 µM [cytotoxic, single point]",–
Cc1ccc2c(c1)c1c(c(=O)n(-c3ccccc3C)c(=O)n1CC(=O)N1CCCC1)n2C,"inconclusive: 1.12 µM [cytotoxic, partial curve, poor fit]",–
COc1ccc(Nc2ccnc(N3CCC(NC(=O)c4cccc(OC)c4)CC3)n2)cc1,inactive,–
COCC1CCN(Cc2cn(-c3ccccc3C)nc2-c2ccc(OC)c(F)c2)CC1,inactive,–
COc1cccc(C(=O)N2c3nc(-c4ccco4)nn3C3(CCCCC3)[C@@H]3CCCC[C@@H]32)c1,"inconclusive: 17.8 µM [cytotoxic, partial curve, poor fit]",–

SMILES,Potency,"activity change, negative = cytotoxicity"
COC1C(=O)N(c2cccc(F)c2)C12CCN(C(=O)Cc1cccc(F)c1)CC2 (stereo unspecified),inactive,–
COc1ccccc1-c1cccc(C(=O)N2CCN(C(=O)NC(C)C)CC2)c1,–,inactive: -13.7% [at 12.5 µM]
Cc1cc(=O)n(CC(=O)Nc2cc(Cl)ccc2C)c(N2CCC(C)CC2)n1,inactive,–
COc1ccc(-n2c(=O)c(-c3cn(C)c4ccccc34)nc3cnc(N4CCNCC4)nc32)cc1,"inconclusive: 28.2 µM [rising, partial curve, poor fit]",–
Cc1nc([C@@H]2CN(C(=O)c3ccc(Br)o3)C[C@H]2C(N)=O)n[nH]1,"inconclusive: 7.08 µM [cytotoxic, single point]",–
O=C(NC1CCN(c2cc(-c3ccc(Cl)cc3)[nH]n2)C1)c1ccccc1F (stereo unspecified),inactive,–
COc1ccccc1CNC(=O)CN1C(=O)COc2ccc(S(=O)(=O)N3CCC(C)CC3)cc21,"inconclusive: 8.91 µM [cytotoxic, partial curve]",–
Cc1ccn2c(Nc3ccc4c(c3)OCO4)c(-c3ccc(N(C)C)cc3)nc2c1,"inconclusive: 20 µM [cytotoxic, partial curve, poor fit]",–
Cc1ccc(Nc2ccnc(N3CCCN(C(=O)Cc4cccc(Cl)c4)C3)n2)cc1,–,inactive: 4.34% [at 12.5 µM]
CC(C)C(=O)N1c2ncnn2C2(CCCCC2)[C@@H]2CCCC[C@@H]21,inactive,–
CCc1ccccc1NC(=O)Cn1c(N2CCc3ccccc3C2)nc(C)cc1=O,"inconclusive: 28.2 µM [cytotoxic, single point]",–
C=CC(=O)Nc1cccc(Nc2nc(Nc3ccc(OCCOC)cc3)ncc2F)c1,active: 9.47 µM,–
Cc1nn(-c2ccc(C(F)(F)F)cc2)c(C)c1[C@@H]1C=C[C@@H](NC(=O)NC2CCCCC2)C1,inactive,–
CC1(c2ccccc2)N(Cc2ccccc2)C(=O)OC12CCN(Cc1c[nH]c3ccccc13)CC2 (stereo unspecified),"inconclusive: 39.8 µM [cytotoxic, single point]",–
CCN1CCN(c2cc3c(cc2F)c(=O)c(S(=O)(=O)c2ccc(OC)cc2)cn3CC)CC1,"inconclusive: 10 µM [cytotoxic, partial curve, poor fit]",–
CCN(CC)CCCNC(=O)CSc1c2c(nc3cc(Cl)ccc13)CCCC2,"inconclusive: 28.2 µM [cytotoxic, partial curve, poor fit]",–
COc1ccc(Nc2ccnc(N3CCCC(C(=O)N4CCCCC4)C3)n2)cc1 (stereo unspecified),"inconclusive: 8.91 µM [cytotoxic, single point]",–
Cc1cccc2sc(N(CCCN(C)C)C(=O)c3ccc(Cl)s3)nc12,"inconclusive: 39.8 µM [cytotoxic, single point]",–
Cc1sc2ncn(CC(=O)N3CCN(c4ccc(F)cc4)CC3)c(=O)c2c1S(=O)(=O)N1CCCCC1,"inconclusive: 14.1 µM [cytotoxic, partial curve, poor fit]",–
